# Laboratory results from PubChem BioAssay (NCI).
#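 Cultured in 96-well plates, cells were exposed to test compound for 48 hours across five concentrations. The concentration for 50% growth inhibition is given as GI50. TGI denotes the concentration required for complete inhibition of growth.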
# Tested on: NCI-H322M lung
# Test: DTP human tumour cell line panel, 48 h
Structure (SMILES),GI50 [µM],TGI [µM]
CN(C)c1nc(NCCNS(=O)(=O)c2ccc(C(=O)/C=C/c3ccc(Cl)cc3)cc2)nc(N2CCOCC2)n1,14.4,27.5
CC[C@]12C=CCN3CC[C@@]4(c5ccc(OC)cc5N(C)[C@H]4[C@@](O)(C(=O)OC)[C@@H]1OC(=O)CCC[P+](c1ccc(F)cc1)(c1ccc(F)cc1)c1ccc(F)cc1)[C@@H]32,> 48.5,> 48.5
NS(=O)(=O)c1ccc(N2N=C(c3ccc(NC(=O)Nc4ccccc4)cc3)CC2c2ccc(Br)cc2)cc1 (configuration not stated),3.51,13.5
C=C1CCC2C3(C)COC(c4ccco4)OC3CCC2(C)C1CC(Sc1ccccc1)C1=CCOC1=O (configuration not stated),42.7,> 100
CCN1CCN(c2ccc(NC(=O)Nc3ccc(-c4cc(C(=O)NC)c5ncccc5n4)cc3)cc2C(F)(F)F)CC1,2.8,5.2
C/C(=C\CC/C=C(\C)CC/C=C(\C)CC[C@@H](O)C(C)(C)O)CC/C=C(\C)CC[C@@H](O)C(C)(C)O,15.7,29.2
